59 compounds from PubChem BioAssay AID485344 (National Center for Advancing Translational Sciences (NCATS), 2010) can be followed below.

Out of some 340,000 compounds screened, about 6,900 (2%) were called active. No stated cut-off is given here; in the data, active means inhibition above about 30%; inactive means below that, where a call was filed. The list shows a part of the results, in another mix than the full data. Entries without a call were filed so in the source.

In this assay the target is D(2) dopamine receptor (Homo sapiens) (UniProt P14416). Kind of assay: HTS Assay for Allosteric Antagonists of the Human D2 Dopamine Receptor: Primary Screen for Antagonists. Further: 0% is about no effect. The following applies: HEK293 TREx D2 cells, calcium flux, dopamine EC80; at 10 µM; stronger effect = higher value. An outline of the steps: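 In this primary screen, negative modulation is detected by tracking calcium flux after an EC80 dopamine challenge in inducible HEK293 T-REx D2 cells preexposed to test compound for 180 s.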
UniProt P14416, sequence (P14416 whole entry, looked up): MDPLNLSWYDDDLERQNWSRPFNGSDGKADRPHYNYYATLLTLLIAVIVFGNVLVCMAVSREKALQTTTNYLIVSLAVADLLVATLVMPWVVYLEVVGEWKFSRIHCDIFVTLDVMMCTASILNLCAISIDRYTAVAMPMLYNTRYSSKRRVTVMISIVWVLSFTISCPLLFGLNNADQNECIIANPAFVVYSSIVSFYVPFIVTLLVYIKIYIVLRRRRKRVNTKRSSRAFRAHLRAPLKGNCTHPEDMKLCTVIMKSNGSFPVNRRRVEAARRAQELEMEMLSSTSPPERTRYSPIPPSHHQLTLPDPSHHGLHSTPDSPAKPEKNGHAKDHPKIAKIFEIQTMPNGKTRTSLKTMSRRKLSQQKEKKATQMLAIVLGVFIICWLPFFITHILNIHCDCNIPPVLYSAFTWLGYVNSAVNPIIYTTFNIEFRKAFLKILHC
Take `Cc1ccc(NC(=O)c2c(C)oc3ncnc(N4CCCCC4)c23)cc1Cl`: the inhibition was -4.38%.

As for `CCn1cc(S(=O)(=O)c2cccc(Cl)c2)c(=O)c2cc(F)c(N3CCC(C)CC3)cc21`, the inhibition stood at 5.36%.

Take `COc1ccc(C)cc1NC(=O)CCc1c(C)nn(-c2ccc(N3CCOCC3)nn2)c1C`: the inhibition was -12.8%. Next, `COc1cccc(-c2ccc3c(N)c(C(=O)c4ccc(Br)cc4)sc3n2)c1`: -7.4%.

On to `Cc1ccc(NC(=O)C(=O)NCC(c2cccnc2)N2CCOCC2)cc1Cl` (centres undefined), for which the inhibition stood at 1.74%.

Turning to `Cc1nc2c(-c3ccccc3)c(C)[nH]n2c(=O)c1Cc1ccccc1`, the inhibition is active: 42.6%. Take `CCCSc1nnc(Sc2nnnn2-c2ccccc2)s1`: the inhibition was active: 44.5%. Take `CCSc1nnc2c(n1)OC(c1ccc(C)cc1)N(C(C)=O)c1ccccc1-2` (centres undefined): the inhibition was determined as 13.5%.

In the case of `COCCNC(=O)CCC(=O)N1Cc2cccc(OC)c2Oc2ncccc21`, the inhibition is -2.37%.

As to `COc1ccc(CNC(=O)CCCN2C(=O)CSc3c2c(C)nn3-c2ccccc2)c(OC)c1`, the inhibition worked out at 7.36%.

Regarding `OC(COc1ccc2c(c1)OCO2)CN1CCN(c2ccccc2)CC1` (centres undefined), the inhibition was active: 81.5%. Next, `Cc1ccc(-c2[nH]c3ccccc3c2SCCNC(=O)c2ccc(S(=O)(=O)N(C)C)cc2)cc1`: -11.1%; `COc1ccc(Cl)cc1NC(=O)CCS(=O)(=O)c1cccc2nonc12`: 13%. Next, `Cc1cccc(C)c1OCC(=O)OCC(=O)c1ccc2c(c1)NC(=O)CO2`: active: 30.2%; `COc1cccc(CSc2nc3n(n2)C(c2cccc(F)c2)C(C(=O)Nc2ccccc2C)=C(C)N3)c1` (centres undefined): 24.6%; `CN(C)c1cc2c(cc1NS(=O)(=O)c1ccccc1)n(C)c(=O)n2C`: -0.356%.

Take `Cc1cccc(N2CCN(C(=O)c3ccc(CS(=O)c4cccc(Cl)c4)o3)CC2)c1C` (centres undefined): the inhibition is -4.61%. Then `COc1ccc(CN(C(=O)Nc2cccc(Cl)c2)c2ccccn2)cc1OC`, with 8.02%; and `Cc1ccc(O)c(NC(=O)c2cc(-c3ccc4c(c3)OCO4)on2)c1`, with 12.3%. Next, `O=C(C1CC1)N1CCc2cc(Br)cc(S(=O)(=O)NC3CCCCC3)c21`: active: 39.6%. Next, `Cc1c(CC(=O)N2CCCCC2)c(=O)oc2c(C)c3occ(C(C)(C)C)c3cc12`: -12.8%; `CCCCOc1ccc(C(C)NC(=O)c2cccc(Nc3nc4ccccc4n4nnnc34)c2)cc1` (centres undefined): 19.8%; `COc1ccc(Cl)cc1NC(=O)C1CCN(c2nnc(C)c3c(C)n(-c4ccccc4)nc23)CC1`: 9.92%. As to `Cc1ccc(CN2CCSc3ccc(C(=O)NCCc4ccccc4)cc32)cc1`, the inhibition turned out to be 4.8%. For `COC(=O)[C@@]1(Cc2ccc(F)cc2)[C@H]2c3cc(C(=O)N4CCCC4)n(CCc4ccc(O)c(O)c4)c3C[C@H]2CN1C(=O)c1ccccc1`, the inhibition was active: 96.3%. Next, `O=c1n(Cc2cccc(F)c2)c2ccccc2c2nc(-c3ccccc3)nn12`: 7.55%; `CN(C)C=NC(=O)c1cc2c(n(-c3ccccc3)c1=O)CC(C)(C)CC2=O`: 8.74%.

Turning to `Cc1ccc(-n2c3nc(=O)[nH]c(=O)c-3cc3c(Cl)cccc32)cc1`, the inhibition is 8.52%. Then `COc1cc(/C=C2\SC(=S)N(CCCCC(=O)O)C2=O)ccc1OS(=O)(=O)c1ccc(C)cc1`, with active: 32.1%; and `Cc1ccc(C)c(NC(=O)N2CCN(C)c3ncccc32)c1`, with 5.49%; and `Cc1ccc(Cn2ccnc2SCC(=O)Nc2ccc3c(c2)OCO3)cc1`, with -1.64%. Next, `CCN(Cc1ccccc1)C(=O)Cn1c(=O)n(-c2ccc(OC)cc2OC)c(=O)c2c(C)c(C)sc21`: 2.41%.

`O=C(CN1CCN(c2ccccc2F)CC1)Nc1ccc2c(c1)CCC2`: the inhibition was active: 69.4%. Then `CCOc1ccc(NC(=O)c2c(NC(=O)Cc3ccccc3)sc3c2CCCC3)cc1`, with -11%. Turning to `COc1ccc(Cl)cc1NC(=O)Cn1c(=O)n(Cc2ccco2)c(=O)c2ccc(C(=O)NC3CCCC3)cc21`, the inhibition was -10.1%.

Consider `CCOc1ccc(CNC(=O)c2ccc(-c3nc(CSc4ccc(C)cc4)c(C)o3)cc2)cc1`, for which the inhibition was -7.38%. Regarding `COc1ccc2c(Sc3ccccc3)c(C(=O)NCc3ccc(OC(C)C)cc3)[nH]c2c1`, the inhibition came out at 28%. As for `COc1cccc(CNC(=O)c2cc3n(n2)CCCN(Cc2ccc(C)cc2)C3=O)c1OC`, the inhibition is 7.49%. Then `COc1ccc(-c2nc3ccc(NS(=O)(=O)c4ccccc4)cc3o2)cc1`, with 6.47%; and `CCOc1ccc(-n2c(SCC(=O)NCc3ccco3)nc3c([nH]c4ccccc43)c2=O)cc1`, with 24%. Next, `Cc1cccc(-c2nnc3n(CCc4ccccc4)c(=O)c4ccccc4n23)c1`: 0.618%; `COc1ccccc1-c1cc(C(F)(F)F)nc(S(=O)(=O)CCCC(=O)Nc2cc(C)ccc2O)n1`: -4.52%. Then `CCOc1ccc(CNC(=O)c2cc3c(=O)n(Cc4cccs4)ccc3nc2C)cc1`, with -9.41%. Take `Cc1ccc2c(=O)c(C(=O)c3ccc(F)cc3)cn(CC(=O)NC3CCCCC3)c2n1`: the inhibition is -9.62%. Then `CCc1c(C)sc(NC(=O)c2cc(-c3ccc(OC)cc3)on2)c1C#N`, with 5.49%; and `CC(=O)Nc1ccc(S(=O)(=O)Nc2ccc(-c3cn4c(C)csc4n3)cc2)cc1`, with -8.6%; and `COC(=O)c1cc(S(=O)(=O)N2CCN(c3cccc(C)c3)C(C)C2)c[nH]1` (centres undefined), with 13.9%.

Turning to `CCCCn1c2ccccc2c2nnc(SCC(=O)Nc3ccc(NC(C)=O)cc3)nc21`, the inhibition turned out to be 7.31%. Turning to `Cc1oc2ccc(O)c(CN(C)Cc3ccccc3)c2c1C(=O)Nc1cccc(Cl)c1C`, the inhibition was -0.977%.

In the case of `COc1cccc2sc3ccc(C#CC4(N)CCCCC4)cc3c(=O)c12`, the inhibition is active: 31.4%. Next, `CCc1nc2nc(C)cc(Nc3ccc(Br)cc3F)n2n1`: 4.05%. Then `O=C(Nc1onc2c1CCCC2)c1ccc(Cl)cc1`, with 20.9%; and `Cc1ccccc1NC(=O)c1c2c(nc3ccccc13)C(=O)N(C1CCCCC1)C2`, with 13.5%. Turning to `Cc1ccc(Cn2cc(S(=O)(=O)c3ccc(C(C)C)cc3)c(=O)c3cc4c(cc32)OCO4)cc1`, the inhibition is active: 36.1%. Regarding `COC(=O)Nc1ccc(S(=O)(=O)N2CCCC(C(=O)Nc3cccnc3)C2)cc1` (centres undefined), the inhibition is active: 43.4%.

Turning to `Cc1cc(C)cc(NC(=O)C(NS(=O)(=O)c2cccc3nsnc23)c2ccccc2)c1` (centres undefined), the inhibition is -3.04%. Then `Cc1ccc(Cn2cnc3c(oc4ccccc43)c2=O)cc1`, with 11.3%; and `O=C(CSc1nnc(-c2ccc(Cl)cc2)o1)N1CCc2ccccc21`, with -1.69%. Next, `FC(F)(F)c1ccc(C2[C@H]3CN(Cc4ccc(-c5ccccc5)cc4)[C@H](c4ccccc4)C34CC2(c2ccccc2)C4)cc1` (some centres undefined): active: 35.4%.
